Assay results: the supplement of paper PMC7826260
Some of the results follow. One pool of 16,384 single-stranded DNAs met each Rep nickase domain in vitro for 1 h at 37 °C with 3 µM enzyme; only the middle of the 90-letter strands is printed. Values are log2 of uncut reads against the no-enzyme pool; more negative means more cut, near 0 not cut, and no call is made. Shares of all reads are compared; where an enzyme cuts many sequences, the uncut ones exceed 0.

Assays:
Test in all cases: uncleaved DNA left, log2 of reads against the no-enzyme library (log2 ratio); higher = less cleavage (more negative = more Rep cleavage of the k-mer); sequences stand for … in CTCGTCCG…ACCGGAGA
[1] = tested on: T1, Rep nickase domain of Muscovy duck circovirus
T1 sequence (residues 1-111, tag not shown): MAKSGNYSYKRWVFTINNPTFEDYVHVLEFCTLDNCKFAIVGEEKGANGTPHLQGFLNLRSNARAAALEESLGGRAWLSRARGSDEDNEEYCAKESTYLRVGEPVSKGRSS
Procedure: (§1)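 A pool of 90-nt single-stranded DNAs with seven random bases just before the constant AC of the nick site (name = the seven bases) was cut by 3 µM recombinant His6-SUMO-tagged Rep nickase domain (300 nM DNA, 50 mM HEPES pH 8.0, 50 mM NaCl, 1 mM MnCl2, 1 h, 37 °C, three replicates). Uncut DNA was amplified and sequenced.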

[2] = tested on: T2, Rep nickase domain of banana bunchy top virus
T2 sequence (residues 1-94, tag not shown): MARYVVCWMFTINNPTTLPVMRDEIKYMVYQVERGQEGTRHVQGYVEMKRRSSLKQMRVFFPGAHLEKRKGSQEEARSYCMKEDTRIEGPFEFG
Procedure: as §1

[3] = tested on: T3, Rep nickase domain of cabbage leaf curl virus
T3 sequence (residues 1-116, tag not shown): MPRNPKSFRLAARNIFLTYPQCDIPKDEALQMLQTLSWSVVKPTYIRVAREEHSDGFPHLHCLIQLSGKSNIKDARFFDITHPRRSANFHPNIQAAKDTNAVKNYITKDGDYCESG
Procedure: as §1

[4] = tested on: T4, Rep nickase domain of chickpea chlorotic dwarf virus
T4 sequence (residues 1-124, tag not shown): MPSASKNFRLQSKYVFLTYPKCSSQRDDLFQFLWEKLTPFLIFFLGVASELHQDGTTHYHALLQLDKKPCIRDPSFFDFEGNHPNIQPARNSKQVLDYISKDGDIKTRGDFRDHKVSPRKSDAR
Procedure: as §1

[5] = tested on: T5, Rep nickase domain of faba bean necrotic yellows virus
T5 sequence (residues 1-98, tag not shown): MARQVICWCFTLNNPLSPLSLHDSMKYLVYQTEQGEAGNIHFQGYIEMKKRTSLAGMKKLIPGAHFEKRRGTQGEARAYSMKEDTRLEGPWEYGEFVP
Procedure: as §1

[6] = tested on: T6, Rep nickase domain of maize striate mosaic virus
T6 sequence (residues 1-117, tag not shown): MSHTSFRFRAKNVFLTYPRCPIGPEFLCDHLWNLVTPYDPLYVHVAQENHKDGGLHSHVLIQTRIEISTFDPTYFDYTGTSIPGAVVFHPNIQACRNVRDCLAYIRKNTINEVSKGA
Procedure: as §1

[7] = tested on: T7, Rep nickase domain of porcine circovirus 2
T7 sequence (residues 2-116, tag not shown): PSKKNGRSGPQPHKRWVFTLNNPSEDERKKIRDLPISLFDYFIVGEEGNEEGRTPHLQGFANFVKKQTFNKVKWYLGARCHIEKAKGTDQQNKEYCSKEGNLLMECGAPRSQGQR
Procedure: as §1

[8] = tested on: T8, Rep nickase domain of tomato golden mosaic virus
T8 sequence (residues 1-124, tag not shown): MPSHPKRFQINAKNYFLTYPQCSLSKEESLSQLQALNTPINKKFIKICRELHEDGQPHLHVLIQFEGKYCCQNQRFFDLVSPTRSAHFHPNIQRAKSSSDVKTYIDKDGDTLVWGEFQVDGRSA
Procedure: as §1

[9] = tested on: T9, Rep nickase domain of tomato yellow leaf curl virus
T9 sequence (residues 1-136, tag not shown): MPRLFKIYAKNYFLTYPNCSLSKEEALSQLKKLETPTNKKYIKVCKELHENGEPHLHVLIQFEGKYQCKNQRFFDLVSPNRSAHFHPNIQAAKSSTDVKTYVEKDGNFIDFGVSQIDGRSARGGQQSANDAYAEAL
Procedure: as §1

[10] = tested on: T10, Rep nickase domain of wheat dwarf virus
T10 sequence (residues 1-137, tag not shown): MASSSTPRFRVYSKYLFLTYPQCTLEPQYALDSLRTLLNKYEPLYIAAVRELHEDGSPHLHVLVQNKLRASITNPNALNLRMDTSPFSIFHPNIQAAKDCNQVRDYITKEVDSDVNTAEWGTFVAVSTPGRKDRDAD
Procedure: as §1

Sequence | uncleaved DNA left (log2) [1] | uncleaved DNA left (log2) [2] | uncleaved DNA left (log2) [3] | uncleaved DNA left (log2) [4] | uncleaved DNA left (log2) [5] | uncleaved DNA left (log2) [6] | uncleaved DNA left (log2) [7] | uncleaved DNA left (log2) [8] | uncleaved DNA left (log2) [9] | uncleaved DNA left (log2) [10]
CCGAGTG | 0.027 | 0.0278 | -0.101 | 0.511 | 0.0368 | 0.782 | 0.0347 | 0.0715 | 0.00243 | -0.0651
CGTCTAA | -0.0442 | 0.0104 | -0.165 | -0.0961 | -0.05 | -0.0843 | -0.116 | -0.0918 | -0.0441 | -0.0302
TGTAGTA | 0.159 | 0.0421 | 0.163 | -0.241 | 0.0116 | 0.253 | -0.104 | 0.122 | 0.103 | -0.00523
AGAAGCA | 0.0118 | 0.029 | -0.0121 | -0.365 | 0.0868 | -0.667 | -0.374 | 0.103 | 0.02 | 0.0638
ATGAATT | -0.214 | -0.413 | -0.273 | -2.17 | -0.238 | -0.439 | -2.62 | -0.224 | -0.113 | -0.137
ATCGAAG | 0.0347 | 0.073 | -0.614 | -0.593 | -0.0665 | -0.978 | 0.199 | 0.0455 | 0.00459 | -0.00187
GTACCCT | -0.137 | -0.027 | 0.223 | 0.447 | -0.11 | 1.62 | -0.0306 | -0.0486 | -0.0612 | 0.0606
CACGGCG | -0.154 | -0.129 | -0.784 | 0.169 | -0.221 | -0.527 | 0.0338 | -0.189 | -0.132 | -0.179
ATCTTCC | -0.376 | -0.153 | -0.202 | -0.314 | -0.174 | -0.457 | -1.64 | -0.0905 | -0.118 | -0.141
ACTCAGC | -0.106 | 0.0236 | -0.535 | -0.448 | 0.0541 | -1.08 | 0.183 | 0.118 | 0.113 | -0.00606
ACAGTTG | 0.0778 | -0.0104 | -0.622 | -0.38 | 0.13 | -0.74 | 0.277 | 0.00657 | 0.0152 | 0.0323
TTTAAAA | 0.108 | 0.0914 | 0.338 | 0.379 | 0.135 | 0.13 | 0.104 | 0.203 | 0.128 | 0.19
GATCCGA | 0.0987 | 0.0824 | 0.265 | 0.637 | 0.00517 | 0.438 | 0.156 | 0.0669 | 0.0992 | 0.0513
TACGGAA | 0.135 | 0.0783 | 0.331 | 0.593 | 0.166 | 0.874 | 0.182 | 0.185 | 0.0517 | 0.122
CCCAACG | 0.0146 | 0.0365 | -0.83 | -0.229 | 0.0839 | -1.14 | 0.266 | 0.0688 | 0.0734 | 0.00374
CAGCCTG | 0.0601 | 0.108 | 0.149 | 0.835 | -0.016 | 1.44 | 0.126 | -0.0103 | -0.0559 | -0.00599
GATTCAC | -0.0133 | 0.0331 | 0.172 | 0.694 | -0.0605 | 0.79 | -0.0269 | -0.066 | 0.087 | 0.135
CATAGGT | 0.182 | -0.0916 | 0.422 | 0.827 | 0.14 | 0.785 | 0.169 | 0.0365 | -0.0633 | 0.045
CAATGCT | -2.36 | -0.333 | -4.18 | -3.04 | -0.0132 | -3.26 | -3.94 | -3.61 | -0.268 | -3.48
GCAACTC | 0.0606 | 0.0741 | 0.0742 | 0.0291 | -0.0237 | -0.135 | 0.0814 | -0.0434 | 0.0413 | 0.0603
TGGATTT | 0.0547 | -0.0532 | 0.529 | 0.512 | -0.0731 | 1.66 | -0.0368 | 0.0133 | -0.0207 | 0.0879
CGACCAG | 0.0945 | 0.0484 | -0.0351 | 0.312 | -0.0671 | 0.372 | 0.134 | -0.112 | 0.0345 | 0.109
CGAATGC | -0.127 | -0.124 | -0.105 | 0.473 | 0.00104 | 0.843 | 0.00766 | -0.163 | -0.0156 | 0.07
GACCAGA | -0.0158 | 0.0177 | 0.258 | 0.396 | -0.0146 | 0.0658 | -0.00458 | -0.034 | -0.0249 | 0.0426
GCCGACA | 0.079 | -0.109 | 0.0865 | 0.383 | 0.0473 | 0.363 | 0.000244 | -0.0526 | -0.111 | 0.0676
TGGCATT | 0.188 | 0.111 | 0.816 | 1.86 | 0.0233 | 2.22 | 0.193 | -0.166 | 0.0707 | 0.113
GATTTTG | -0.000314 | 0.117 | -0.154 | -0.278 | 0.0921 | -1.02 | 0.103 | 0.011 | 0.00271 | -0.0764
AAAGGCC | 0.121 | 0.108 | 0.155 | 0.369 | 0.08 | 0.00346 | 0.0728 | 0.0675 | -0.0418 | 0.156
TAACATC | 0.0727 | 0.0944 | -3.03 | -2.64 | 0.138 | -1.14 | 0.0609 | -0.272 | 0.14 | -0.582
TGCAGTG | 0.0159 | -0.121 | -0.524 | -0.451 | -0.00459 | -0.864 | 0.0273 | 0.00602 | -0.0521 | -0.175
